Laboratory results from article PMC8492340.
No constants are given. Whether binding was seen depends on the method and setting. For some assays here: Binding seen in cells or lysates may run through a third protein. Some entries that bind do so weakly or less than the wild type.

The chains behind the UniProt entries cited, without tags or fusion partners. Where a name states a change or a piece, a line headed by the entry shows the natural chain unless it says otherwise. Residues count along the entry.
UniProt P17661: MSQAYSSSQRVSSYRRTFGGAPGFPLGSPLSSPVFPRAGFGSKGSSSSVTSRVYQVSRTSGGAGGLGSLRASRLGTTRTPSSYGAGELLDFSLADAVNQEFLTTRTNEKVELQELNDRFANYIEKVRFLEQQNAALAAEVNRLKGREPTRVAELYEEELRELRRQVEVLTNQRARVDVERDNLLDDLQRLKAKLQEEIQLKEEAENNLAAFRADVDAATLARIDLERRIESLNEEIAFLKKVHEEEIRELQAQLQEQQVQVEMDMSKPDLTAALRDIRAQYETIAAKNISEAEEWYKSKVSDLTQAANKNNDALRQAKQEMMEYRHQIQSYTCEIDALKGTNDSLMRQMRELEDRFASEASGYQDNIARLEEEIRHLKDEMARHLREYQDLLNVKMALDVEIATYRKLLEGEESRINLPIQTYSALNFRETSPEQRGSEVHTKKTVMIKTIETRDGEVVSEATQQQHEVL
UniProt P31001: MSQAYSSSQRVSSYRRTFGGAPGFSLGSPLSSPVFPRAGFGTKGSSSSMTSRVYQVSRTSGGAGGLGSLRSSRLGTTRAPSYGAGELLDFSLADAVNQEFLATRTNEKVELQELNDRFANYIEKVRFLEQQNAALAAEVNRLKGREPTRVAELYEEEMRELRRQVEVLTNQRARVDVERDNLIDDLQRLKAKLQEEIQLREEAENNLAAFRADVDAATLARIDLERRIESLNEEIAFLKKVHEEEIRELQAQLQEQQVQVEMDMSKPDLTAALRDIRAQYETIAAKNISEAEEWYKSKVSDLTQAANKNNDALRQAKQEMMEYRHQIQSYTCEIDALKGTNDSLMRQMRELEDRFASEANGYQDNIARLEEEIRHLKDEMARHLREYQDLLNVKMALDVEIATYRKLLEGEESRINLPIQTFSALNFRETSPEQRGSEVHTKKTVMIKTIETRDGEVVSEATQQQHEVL
UniProt P70302, residues 23-685: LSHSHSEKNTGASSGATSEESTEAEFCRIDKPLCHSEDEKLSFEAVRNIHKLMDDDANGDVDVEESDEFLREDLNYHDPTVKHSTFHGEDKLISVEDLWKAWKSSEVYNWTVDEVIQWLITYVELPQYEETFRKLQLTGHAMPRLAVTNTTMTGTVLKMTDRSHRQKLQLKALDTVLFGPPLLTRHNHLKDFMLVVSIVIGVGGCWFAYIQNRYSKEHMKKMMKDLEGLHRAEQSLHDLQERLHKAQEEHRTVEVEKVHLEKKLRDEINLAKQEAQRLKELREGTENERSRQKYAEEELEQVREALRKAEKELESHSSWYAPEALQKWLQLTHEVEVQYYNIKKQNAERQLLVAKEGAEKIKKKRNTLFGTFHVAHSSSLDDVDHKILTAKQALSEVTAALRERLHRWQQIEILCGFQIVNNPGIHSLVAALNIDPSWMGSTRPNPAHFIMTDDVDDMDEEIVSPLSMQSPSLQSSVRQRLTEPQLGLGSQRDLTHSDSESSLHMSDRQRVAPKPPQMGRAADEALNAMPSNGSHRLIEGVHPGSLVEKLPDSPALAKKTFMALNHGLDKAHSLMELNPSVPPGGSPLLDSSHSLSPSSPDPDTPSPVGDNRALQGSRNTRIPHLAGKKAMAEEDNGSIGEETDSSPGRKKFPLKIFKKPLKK
UniProt Q61056: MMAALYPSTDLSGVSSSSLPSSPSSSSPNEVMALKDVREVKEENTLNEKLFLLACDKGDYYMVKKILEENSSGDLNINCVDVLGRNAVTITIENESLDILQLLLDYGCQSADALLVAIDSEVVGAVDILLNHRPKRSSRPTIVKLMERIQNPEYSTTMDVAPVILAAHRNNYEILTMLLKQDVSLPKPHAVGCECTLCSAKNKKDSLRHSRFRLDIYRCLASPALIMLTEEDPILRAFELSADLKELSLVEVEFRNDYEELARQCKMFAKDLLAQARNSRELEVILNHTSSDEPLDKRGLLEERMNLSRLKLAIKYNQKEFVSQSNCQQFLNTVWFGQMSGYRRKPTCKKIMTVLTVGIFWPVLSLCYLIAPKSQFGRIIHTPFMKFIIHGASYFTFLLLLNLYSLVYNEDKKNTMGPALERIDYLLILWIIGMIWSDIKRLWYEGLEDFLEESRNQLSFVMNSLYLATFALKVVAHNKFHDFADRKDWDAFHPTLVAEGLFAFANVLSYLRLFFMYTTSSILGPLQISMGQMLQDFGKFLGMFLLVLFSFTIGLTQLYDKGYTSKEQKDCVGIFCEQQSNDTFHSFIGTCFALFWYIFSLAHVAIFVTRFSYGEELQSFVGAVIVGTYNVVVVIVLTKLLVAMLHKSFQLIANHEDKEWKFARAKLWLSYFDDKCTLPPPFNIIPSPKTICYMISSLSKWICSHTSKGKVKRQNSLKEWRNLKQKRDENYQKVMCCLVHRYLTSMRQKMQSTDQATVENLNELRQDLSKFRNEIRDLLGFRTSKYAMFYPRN

Experiments:
[1] = target: STIM1-His tagged CC1 peptides (238-342 aa) (UniProt Q13586); test: pull-down; His-tagged STIM1 fragment and desmin-CT coexpressed in E. coli BL21 from pETDUET-1; supernatant on cobalt beads; 300 mM NaCl, 20 mM Tris-Cl pH 7.5, 5% glycerol, 5 mM imidazole; wash with 25 mM, elution with 300 mM imidazole; Coomassie-stained gel
[2] = target: His-tagged STIM1 CC1-SOAR (238-535 aa), coexpressed in E. coli (UniProt Q13586); test: as above
[3] = target: desmin overexpressed in HEK293 cells (UniProt P17661); test: co-IP; V5-tagged STIM1 fragments coexpressed with desmin in HEK293 cells; IP with V5 or desmin antibodies on protein A/G beads, IgG as negative control; Western blot with V5 antibody
[4] = target: biotinylated STIM1-CT (238-535 aa) from Sf9 cells (UniProt Q13586); test: ELISA; wells coated with STIM1-CT incubated with lysates of C2C12 myoblasts transfected with rising amounts of desmin plasmid; endogenous STIM1 detected by anti-STIM1 N-terminus antibody; OD405; only the target purified
[5] = target: endogenous desmin (mouse skeletal muscle) (mouse (endogenous in skeletal muscle)) (UniProt P31001); test: co-IP; skeletal muscle lysate (RIPA buffer) incubated with anti-desmin, anti-STIM1 or control IgG overnight; immunoblot with STIM1 antibody
[6] = target: biotinylated STIM1-CT (238-535 aa) from Sf9 cells (UniProt Q13586); test: ELISA; 4 pmol biotin-STIM1-CT held on NeutrAvidin-coated wells; skeletal muscle lysate or lysate of HEK293 cells with His-tagged Orai1, 2 h at room temperature; detection with anti-desmin, anti-His tag, anti-TRPC1 and anti-STIM1 N-terminus antibodies; OD405; only the target purified

Row | binding [3] | binding [6] | Substance | also measured
1 | – | – | C-terminal desmin (371-470 aa) (from UniProt P17661 371-470) (domain or fragment) | binding [1]: no binding; binding [2]: binds
2 | no binding | – | STIM1 P/S PBD domain (526-685 aa) with a V5 tag (from UniProt Q13586 526-685) (domain or fragment) | –
3 | no binding | – | STIM1 inhibitory domain (448-535 aa) with a V5 tag (from UniProt Q13586 448-535) (domain or fragment) | –
4 | – | – | endogenous STIM1 (C2C12 cells) (from UniProt P70302 23-685) | binding [4]: binds
5 | – | binds | endogenous STIM1 (mouse skeletal muscle) (from UniProt P70302 23-685) | binding [5]: binds
6 | – | no binding | endogenous TRPC1 (mouse skeletal muscle) (from UniProt Q61056 1-793) | –
